From paper PMC12820563, “FoxP3 forms a head-to-head dimer in vivo and stabilizes its multimerization on adjacent microsatellites”
The other results are listed elsewhere or left out.

molecular target: T1, MBP-FoxP1dN (Mus musculus, UniProt P58462 326-579); test: PD-seq (MBP pull-down with sequencing); 20 mM Tris-HCl pH 7.5, 100 mM NaCl, 1.5 mM MgCl2, 0.4 uM protein, 0.1 uM dsDNA library, 30 min, room temperature, amylose pull-down; high values mean tight binding; settings: protein: recombinant; tags: His6-MBP; chain copies: 2; dsDNA, one strand shown
T1 sequence: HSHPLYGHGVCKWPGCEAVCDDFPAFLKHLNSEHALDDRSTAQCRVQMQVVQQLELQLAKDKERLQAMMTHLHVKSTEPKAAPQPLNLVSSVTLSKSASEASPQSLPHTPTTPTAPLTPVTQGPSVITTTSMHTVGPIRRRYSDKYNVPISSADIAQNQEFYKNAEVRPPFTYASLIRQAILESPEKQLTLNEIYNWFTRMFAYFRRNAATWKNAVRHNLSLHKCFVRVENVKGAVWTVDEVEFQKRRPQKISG
Outline: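 His6-MBP-tagged mouse FoxP3 or FoxP1 fragment lacking the N-terminus, expressed in E. coli, was mixed at 0.4 µM with 0.1 µM Klenow-filled double-stranded degenerate DNA library. Incubation was 30 min at room temperature in Tris pH 7.5 buffer with NaCl and MgCl2. Complexes were caught on amylose resin and washed three times; DNA was released with proteinase K, PCR-barcoded and Illumina-sequenced. Binding is reads-per-million enrichment, pull-down over input, with replicates pooled.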

| Sequence | binding signal |
| --- | --- |
| GATGATTGTTCTCCCAGCTGATGAATTTTTGATTTCGAGTAAACAAATTTTCCTAATCTTTCTGTTCAAGCGCCATCTAC | 1.33 RPM ratio (pull-down/input) |
| GATGATTGTTCTCCCAGCTGATGAATTGCTTGCGTCGAGTAAACAAATTTTCCTAATCTTTCTGTTCAAGCGCCATCTAC | 1.16 RPM ratio (pull-down/input) |
| GATGATTGTTCTCCCAGCTGATGAATTTAGACCATCGAGTAAACAAATTTTCCTAATCTTTCTGTTCAAGCGCCATCTAC | 0.985 RPM ratio (pull-down/input) |
| GATGATTGTTCTCCCAGCTGATGAATTTACCGTCTCGAGTAAACAAATTTTCCTAATCTTTCTGTTCAAGCGCCATCTAC | 1.07 RPM ratio (pull-down/input) |
| GATGATTGTTCTCCCAGCTGATGAATTTGTCAATTCGAGTAAACAAATTTTCCTAATCTTTCTGTTCAAGCGCCATCTAC | 1.35 RPM ratio (pull-down/input) |
| GATGATTGTTCTCCCAGCTGATGAATTGTGGGAATCGAGTAAACAAATTTTCCTAATCTTTCTGTTCAAGCGCCATCTAC | 1.08 RPM ratio (pull-down/input) |
| GATGATTGTTCTCCCAGCTGATGAATTGGCACACTCGAGTAAACAAATTTTCCTAATCTTTCTGTTCAAGCGCCATCTAC | 0.934 RPM ratio (pull-down/input) |
| GATGATTGTTCTCCCAGCTGATGAATTAGGGCCCTCGAGTAAACAAATTTTCCTAATCTTTCTGTTCAAGCGCCATCTAC | 0.865 RPM ratio (pull-down/input) |
| GATGATTGTTCTCCCAGCTGATGAATTCCACCTCTCGAGTAAACAAATTTTCCTAATCTTTCTGTTCAAGCGCCATCTAC | 0.801 RPM ratio (pull-down/input) |
| GATGATTGTTCTCCCAGCTGATGAATTTTACTGTTCGAGTAAACAAATTTTCCTAATCTTTCTGTTCAAGCGCCATCTAC | 0.897 RPM ratio (pull-down/input) |
| GATGATTGTTCTCCCAGCTGATGAATTTCGTGCGTCGAGTAAACAAATTTTCCTAATCTTTCTGTTCAAGCGCCATCTAC | 0.941 RPM ratio (pull-down/input) |
| GATGATTGTTCTCCCAGCTGATGAATTCTGACGCTCGAGTAAACAAATTTTCCTAATCTTTCTGTTCAAGCGCCATCTAC | 0.876 RPM ratio (pull-down/input) |
| GATGATTGTTCTCCCAGCTGATGAATTACTTCCATCGAGTAAACAAATTTTCCTAATCTTTCTGTTCAAGCGCCATCTAC | 1.11 RPM ratio (pull-down/input) |
| GATGATTGTTCTCCCAGCTGATGAATTTGCTTAGTCGAGTAAACAAATTTTCCTAATCTTTCTGTTCAAGCGCCATCTAC | 1.12 RPM ratio (pull-down/input) |
| GATGATTGTTCTCCCAGCTGATGAATTAGGCATTTCGAGTAAACAAATTTTCCTAATCTTTCTGTTCAAGCGCCATCTAC | 1.11 RPM ratio (pull-down/input) |
| GATGATTGTTCTCCCAGCTGATGAATTTGAAGGATCGAGTAAACAAATTTTCCTAATCTTTCTGTTCAAGCGCCATCTAC | 0.857 RPM ratio (pull-down/input) |

| Sequence | binding signal |
| --- | --- |
| GATGATTGTTCTCCCAGCTGATGAATTAAACGAGTCGAGTAAACAAATTTTCCTAATCTTTCTGTTCAAGCGCCATCTAC | 0.83 RPM ratio (pull-down/input) |
| GATGATTGTTCTCCCAGCTGATGAATTCTCGCCATCGAGTAAACAAATTTTCCTAATCTTTCTGTTCAAGCGCCATCTAC | 0.86 RPM ratio (pull-down/input) |
| GATGATTGTTCTCCCAGCTGATGAATTGCCGGTATCGAGTAAACAAATTTTCCTAATCTTTCTGTTCAAGCGCCATCTAC | 0.959 RPM ratio (pull-down/input) |
| GATGATTGTTCTCCCAGCTGATGAATTAGTTGGTTCGAGTAAACAAATTTTCCTAATCTTTCTGTTCAAGCGCCATCTAC | 1.04 RPM ratio (pull-down/input) |
| GATGATTGTTCTCCCAGCTGATGAATTCAAAGTGTCGAGTAAACAAATTTTCCTAATCTTTCTGTTCAAGCGCCATCTAC | 0.91 RPM ratio (pull-down/input) |
| GATGATTGTTCTCCCAGCTGATGAATTATCTAGCTCGAGTAAACAAATTTTCCTAATCTTTCTGTTCAAGCGCCATCTAC | 1.02 RPM ratio (pull-down/input) |
| GATGATTGTTCTCCCAGCTGATGAATTGTAAAGATCGAGTAAACAAATTTTCCTAATCTTTCTGTTCAAGCGCCATCTAC | 1.07 RPM ratio (pull-down/input) |
| GATGATTGTTCTCCCAGCTGATGAATTGATTTGTTCGAGTAAACAAATTTTCCTAATCTTTCTGTTCAAGCGCCATCTAC | 1.22 RPM ratio (pull-down/input) |
| GATGATTGTTCTCCCAGCTGATGAATTCGGCGTTTCGAGTAAACAAATTTTCCTAATCTTTCTGTTCAAGCGCCATCTAC | 0.872 RPM ratio (pull-down/input) |
| GATGATTGTTCTCCCAGCTGATGAATTAATCCTTTCGAGTAAACAAATTTTCCTAATCTTTCTGTTCAAGCGCCATCTAC | 0.892 RPM ratio (pull-down/input) |
| GATGATTGTTCTCCCAGCTGATGAATTATGCACCTCGAGTAAACAAATTTTCCTAATCTTTCTGTTCAAGCGCCATCTAC | 1.04 RPM ratio (pull-down/input) |
| GATGATTGTTCTCCCAGCTGATGAATTGACCCGCTCGAGTAAACAAATTTTCCTAATCTTTCTGTTCAAGCGCCATCTAC | 0.842 RPM ratio (pull-down/input) |
| GATGATTGTTCTCCCAGCTGATGAATTTTAATCGTCGAGTAAACAAATTTTCCTAATCTTTCTGTTCAAGCGCCATCTAC | 0.908 RPM ratio (pull-down/input) |
| GATGATTGTTCTCCCAGCTGATGAATTCGCCGACTCGAGTAAACAAATTTTCCTAATCTTTCTGTTCAAGCGCCATCTAC | 0.694 RPM ratio (pull-down/input) |
| GATGATTGTTCTCCCAGCTGATGAATTAGCATGCTCGAGTAAACAAATTTTCCTAATCTTTCTGTTCAAGCGCCATCTAC | 0.959 RPM ratio (pull-down/input) |
| GATGATTGTTCTCCCAGCTGATGAATTTTCCTTGTCGAGTAAACAAATTTTCCTAATCTTTCTGTTCAAGCGCCATCTAC | 0.879 RPM ratio (pull-down/input) |
